# The supplement of paper PMC3334620
# Over roughly 33,000 sequences, “E-score (-0.5 to 0.5)” has its median near -0.036; the highest 2% begin near 0.37. The list shows a part of the results.
# Target: T1, Yer064c (UniProt P40041)
# T1 sequence: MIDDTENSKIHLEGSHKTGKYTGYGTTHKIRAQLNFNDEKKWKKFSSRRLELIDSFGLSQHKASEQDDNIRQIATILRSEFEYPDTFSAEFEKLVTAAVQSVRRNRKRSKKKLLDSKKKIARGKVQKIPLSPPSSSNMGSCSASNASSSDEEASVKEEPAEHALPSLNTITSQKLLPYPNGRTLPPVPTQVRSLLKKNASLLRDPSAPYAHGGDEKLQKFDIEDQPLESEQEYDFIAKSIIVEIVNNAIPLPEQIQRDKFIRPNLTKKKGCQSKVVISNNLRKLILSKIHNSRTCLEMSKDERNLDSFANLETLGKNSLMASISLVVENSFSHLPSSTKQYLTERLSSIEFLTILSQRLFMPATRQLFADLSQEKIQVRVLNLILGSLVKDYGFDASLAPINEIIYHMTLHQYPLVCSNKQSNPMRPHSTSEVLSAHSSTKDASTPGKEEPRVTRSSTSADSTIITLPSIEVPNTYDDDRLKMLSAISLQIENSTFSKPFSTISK
# Assay: PBM E-score (8-mer binding enrichment) (E-score (-0.5 to 0.5)); higher = stronger / more preferred TF binding; most listed sequences are background and not binding sites
# Details: protein concentration: 200 nM; construct: GST-full length
# Description: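 Universal 'all 10-mer' protein binding microarrays (Agilent AMADID 015681) probed with GST-tagged S. cerevisiae TFs (full-length or DBD) made by in vitro transcription/translation (PURExpress), about 100-200 nM. Bound TF was detected with fluorescent anti-GST. Each ungapped 8-mer (which stands for itself and its reverse complement) is scored by the PBM enrichment score (E-score), a modified Wilcoxon-Mann-Whitney statistic from -0.5 to +0.5, computed with the Universal PBM Analysis Suite. Scale: above 0.35 generally sequence-specific binding.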
row,Sequence,PBM E-score
1,ACCACTGG,-0.176
2,CGACCACA,-0.0944
3,ACTCGCGA,0.224
4,GACGCGCC,-0.293
5,AGCAGCAG,-0.0489
6,ACAACGAA,0.131
7,ACAATTCC,-0.158
8,ATCGTTTA,0.142
9,ATGCGCCC,-0.187
10,AGCTGGAG,-0.13
11,GACAGTAA,0.165
12,TGAATAAA,0.157
13,ATGAAGGG,-0.109
14,CGTTGGGA,-0.147
15,GCCAGACC,-0.295
16,CTACGGAG,0.0201
17,AGGGCTTG,-0.118
18,CAAGCTAC,-0.0324
19,CGGGATAG,-0.189
20,ACAGTAAC,0.0667
21,CCCCTAGC,-0.345
22,GGCACGCA,-0.34
23,CACTGCTA,0.151
24,ACGCGGGG,-0.0963
25,AACTAGTG,-0.0858

row,Sequence,PBM E-score
1,CGTCCGAG,-0.187
2,AGACCTAG,-0.0226
3,CAATCCTA,-0.0186
4,AGTCGGGG,0.304
5,ATAGGCGA,-0.103
6,GGCTGACC,-0.0263
7,CGTTAGTA,0.0645
8,AACAATCG,-0.0784
9,CGGTCTAC,-0.0583
10,GATAACCA,0.0591
11,TCGGAGAA,0.0416
12,CCTTAAGC,-0.174
13,CGACGAGC,-0.0822
14,ACTGGGGC,-0.0604
15,TCGAGCAA,0.00286
16,AGGACATG,-0.0955
17,CGGACTTA,0.203
18,GCAGGCGA,-0.0244
19,GACAGGTC,-0.248
20,CAGCGTTA,0.00377
21,TAAATAAA,0.0687
22,ACTAAGTA,0.235
23,AGGTATGC,-0.0991
24,CCGGCCAC,-0.295
25,AAGGGCGC,-0.139

row,Sequence,PBM E-score
1,CATCTACC,-0.0249
2,AACACGGA,0.0872
3,ATAGTGCG,-0.199
4,CAAAAATG,-0.0502
5,AAAGGTTG,-0.0089
6,CCTGACGC,-0.133
7,AGGACAGG,-0.316
8,CTATTTGA,0.0437
9,AACTAGGA,-0.00798
10,GAAGATAC,-0.135
11,TAATGTCA,-0.258
12,CCCACCCA,-0.141
13,AGTATTAT,0.0665
14,GCTAGGCC,-0.192
15,AACTATGG,0.0319
16,AGAACTTC,-0.0562
17,ACCAGAGA,-0.0301
18,ACTGGACG,-0.148
19,CAGCTGGA,0.103
20,GTTAACGA,0.0669
21,GGCGAATA,-0.0639
22,GCACTAAA,0.0628
23,GGAGTCAA,0.431
24,AGATTGTC,-0.0569
25,CTCGTTAC,0.0242

row,Sequence,PBM E-score
1,TATGTCGA,0.11
2,AAATACGT,-0.298
3,CTCTGCGA,0.234
4,CTTGTCTA,-0.0944
5,AACGAACG,-0.00189
6,CCGACCCC,-0.299
7,AAGGCTCC,-0.264
8,AGACGCTC,-0.242
9,AGATCCCA,-0.186
10,CTATCACC,-0.18
11,CTTTACAA,-0.0468
12,CTTCTTGA,0.153
13,AAGCGCTG,-0.0331
14,CTCAAGGA,0.106
15,AAGACCTC,-0.0548
16,ACCCATAG,0.101
17,TCAGCCGA,0.21
18,CCTCGCTA,-0.157
19,CTGTTACA,-0.0433
20,GCAGGACA,-0.234
21,AAATAAGA,0.0164
22,ACCCGTTA,-0.127
23,ATATAAGA,0.156
24,CCGCTCGC,-0.338
25,CGTTTGCA,-0.157

row,Sequence,PBM E-score
1,CAATGCTA,0.0441
2,CTGTCGAA,-0.216
3,AGGCCAAA,-0.0373
4,CAAGGAAC,-0.0409
5,AAAGCAAG,0.00899
6,AAGATTCG,0.205
7,GCTTAAGA,0.00642
8,AGTGATAA,-0.0496
9,AGCTAACG,-0.194
10,TCAGGCAA,0.0469
11,ATGCAGAC,0.0597
12,CCCATGAA,-0.0941
13,CGGAGCTC,-0.288
14,CTTCCAAA,0.0995
15,GGACATAC,0.00983
16,ACTTAGAT,0.182
17,AACAAATG,0.00915
18,CCTTTTAC,-0.124
19,CGTGCATC,-0.141
20,AGTAAAAC,0.00304
21,ACTGCCGC,-0.0169
22,CCCGCGAA,0.0838
23,ATCGTAAG,-0.0159
24,GAAGATCC,-0.181
25,AACGTTTG,-0.298

row,Sequence,PBM E-score
1,CAGCTAGA,-0.0194
2,GTGCTCTA,-0.172
3,AGATAACA,0.0332
4,CATAGAAC,-0.0992
5,CCGATACA,-0.183
6,CCCTCTGC,-0.226
7,ATGCTGCG,-0.0996
8,AATGGCGG,-0.171
9,CTCAAACC,-0.0776
10,AATCGGTC,0.0165
11,ACTAGTTG,0.038
12,GTACAGAC,0.177
13,CACAGTAG,0.0897
14,CCATCTTA,-0.00497
15,CGAGGGAG,-0.0424
16,AGTCTGCA,0.214
17,CAGCAGCA,-0.107
18,AAGTCTGG,-0.117
19,ATCATATG,0.278
20,GACTCGCA,0.414
21,GATAACGA,0.0625
22,ATCCATCG,-0.0255
23,ATGTAGAG,-0.242
24,CAAAATTG,-0.079
25,CACAATGA,0.231

row,Sequence,PBM E-score
1,CCCTCTAG,-0.0457
2,AGTCGGGA,0.24
3,AACCCGGC,-0.186
4,GACTGCGC,0.275
5,TAGGGGCA,-0.214
6,CATACTCA,0.286
7,CTTTAAAC,-0.16
8,CGGATGAA,0.0717
9,GCTCTTCA,-0.0893
10,ACCTCGTA,-0.00955
11,CGCCACAC,-0.357
12,ATAAAACA,0.0178
13,CCATAGCA,-0.025
14,AGAGAAGG,-0.159
15,ATTGAATC,0.375
16,AGACTAAG,0.383
17,ATTTCACG,0.0504
18,GAGCTTGA,0.0286
19,CGGAACCC,-0.142
20,ACCTGCTA,-0.124
21,AGTTGAGG,0.00469
22,ACTTATCC,0.0374
